# This is one part of the list. Many values rest on one well or one pass, so single values are uncertain.
# Test system: COLO800
# Assay: cell count relative to DMSO control; melanoma cells; higher = more viable cells
# Conditions: library dose: standard library concentration; 72 h
# 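Further: cells treated in 1,536-well plates, then fixed and DAPI-stained, with nuclei counted from automated high-throughput microscope images.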
row,Structure (SMILES),cell count
1,"COc1ccc(COc2ccc(Cc3cnc(N)nc3N)cc2OC)cc1 + O=S(=O)(c1ccccc1)N(CC(F)(F)F)c1ccc(C(O)(C(F)(F)F)C(F)(F)F)cc1 [T0901317] (first compound 5 µM, partner dose 7 µM)",75.6%
2,"O=S(=O)(c1ccccc1)N(CC(F)(F)F)c1ccc(C(O)(C(F)(F)F)C(F)(F)F)cc1 + Cn1cc(/C=C2\C(=O)Nc3cccnc32)c2ccccc21 [GW441756] (first compound 7 µM, partner dose 2 µM)",66.5%
3,"Cn1cc(/C=C2\C(=O)Nc3cccnc32)c2ccccc21 + CC(C)CCN1c2nc(Nc3cc(F)c(O)c(F)c3)ncc2N(C)C(=O)C1C [BID1870] (first compound 2 µM, partner dose 1 µM)",50.4%
4,"COC(=O)c1sccc1S(=O)(=O)Nc1ccc(Nc2ccccc2)cc1OC + COc1cc2ncnc(Nc3ccc(Oc4ccccc4)cc3)c2cc1OC [SrcI1] (first compound 5 µM, partner dose 10 µM)",91.7%
5,"O=S(=O)(c1ccccc1)N(CC(F)(F)F)c1ccc(C(O)(C(F)(F)F)C(F)(F)F)cc1 + CCCCCCCCCCCC1=C(O)C(=O)C=C(O)C1=O [Embelin] (first compound 7 µM, partner dose 6 µM)",86.7%
6,"N#Cc1c(O)c2c(-c3ccc(-c4ccccc4O)cc3)csc2[nH]c1=O + COc1ccc(-c2ccc3c(N4CCOCC4)nc(N4C[C@@H](C)O[C@@H](C)C4)nc3n2)cc1CO [KU0063794] (first compound 10 µM, partner dose 0.1 µM)",120%
7,"COc1ccc2c(c1)CCC1C2CCC2(C)C(NCCCCCCN3C(=O)C=CC3=O)CCC12 (configuration not stated) + CC(C)CCN1c2nc(Nc3cc(F)c(O)c(F)c3)ncc2N(C)C(=O)C1C [BID1870] (first compound 2 µM, partner dose 1 µM)",59.8%
8,"Oc1cc(-c2nc(-c3ccccc3)[nH]c2-c2ccncc2)ccc1Cl + O=C1NC(=O)/C(=C/c2ccc(-c3ccc(F)cc3O)o2)S1 [AS252424] (first compound 1 µM, partner dose 5 µM)",69.5%
9,"COc1ccc2c(c1)CCC1C2CCC2(C)C(NCCCCCCN3C(=O)C=CC3=O)CCC12 (configuration not stated) + c1cc(-c2cnn3cc(-c4ccc(OCCN5CCCCC5)cc4)cnc23)ccn1 [Dorsomorphin] (first compound 2 µM, partner dose 2 µM)",45.7%
10,"Cn1cc(/C=C2\C(=O)Nc3cccnc32)c2ccccc21 + O=c1cc(-c2cccc3c2Sc2ccccc2S3)oc(N2CCOCC2)c1 [KU55933] (first compound 2 µM, partner dose 5 µM)",72.8%
11,"O=S(=O)(c1ccccc1)N(CC(F)(F)F)c1ccc(C(O)(C(F)(F)F)C(F)(F)F)cc1 + O=c1cc(-c2cccc3c2Sc2ccccc2S3)oc(N2CCOCC2)c1 [KU55933] (first compound 7 µM, partner dose 5 µM)",77.6%
12,"COc1ccc(COc2ccc(Cc3cnc(N)nc3N)cc2OC)cc1 + Oc1cc(-c2nc(-c3ccccc3)[nH]c2-c2ccncc2)ccc1Cl [L779450] (first compound 5 µM, partner dose 1 µM)",63.5%
13,"N#Cc1c(O)c2c(-c3ccc(-c4ccccc4O)cc3)csc2[nH]c1=O + c1cc(-c2cnn3cc(-c4ccc(OCCN5CCCCC5)cc4)cnc23)ccn1 [Dorsomorphin] (first compound 10 µM, partner dose 2 µM)",84.3%
14,"Oc1nc(-c2ccc(C(F)(F)F)cc2)nc2c1CSCC2 + COc1cc(N2CCC(N3CCN(C)CC3)CC2)ccc1Nc1ncc(Cl)c(Nc2ccccc2S(=O)(=O)C(C)C)n1 [NVP-TAE684] (first compound 10 µM, partner dose 0.4 µM)",67.3%
15,"COc1ccc(-c2ccc3c(N4CCOCC4)nc(N4C[C@@H](C)O[C@@H](C)C4)nc3n2)cc1CO + O=S(=O)(c1ccccc1)N(CC(F)(F)F)c1ccc(C(O)(C(F)(F)F)C(F)(F)F)cc1 [T0901317] (first compound 0.1 µM, partner dose 7 µM)",113%
16,"COc1ccc(COc2ccc(Cc3cnc(N)nc3N)cc2OC)cc1 + CC(C)CCN1c2nc(Nc3cc(F)c(O)c(F)c3)ncc2N(C)C(=O)C1C [BID1870] (first compound 5 µM, partner dose 1 µM)",42.3%
17,"c1cc(-c2cnn3cc(-c4ccc(OCCN5CCCCC5)cc4)cnc23)ccn1 [Dorsomorphin] + CC(C)CCN1c2nc(Nc3cc(F)c(O)c(F)c3)ncc2N(C)C(=O)C1C [BID1870] (first compound 2 µM, partner dose 1 µM)",44.8%
18,"N#Cc1c(O)c2c(-c3ccc(-c4ccccc4O)cc3)csc2[nH]c1=O + O=c1cc(-c2cccc3c2Sc2ccccc2S3)oc(N2CCOCC2)c1 [KU55933] (first compound 10 µM, partner dose 5 µM)",86.9%
19,"N#Cc1c(O)c2c(-c3ccc(-c4ccccc4O)cc3)csc2[nH]c1=O + CCN(CC)CCCCNc1ncc2cc(-c3cc(OC)cc(OC)c3)c(NC(=O)NC(C)(C)C)nc2n1 [PD173074] (first compound 10 µM, partner dose 0.5 µM)",72.6%
20,"Oc1cc(-c2nc(-c3ccccc3)[nH]c2-c2ccncc2)ccc1Cl + Oc1nc(-c2ccc(C(F)(F)F)cc2)nc2c1CSCC2 [XAV939] (first compound 1 µM, partner dose 10 µM)",66%
21,"O=S(=O)(c1ccccc1)N(CC(F)(F)F)c1ccc(C(O)(C(F)(F)F)C(F)(F)F)cc1 + Oc1cc(-c2nc(-c3ccccc3)[nH]c2-c2ccncc2)ccc1Cl [L779450] (first compound 7 µM, partner dose 1 µM)",66.7%
22,"N#Cc1c(O)c2c(-c3ccc(-c4ccccc4O)cc3)csc2[nH]c1=O + Oc1cc(-c2nc(-c3ccccc3)[nH]c2-c2ccncc2)ccc1Cl [L779450] (first compound 10 µM, partner dose 1 µM)",92%

# Reference: the supplement of paper PMC4604168 (melanoma cell lines)
